# Measured values as given in the supplement of paper PMC11417369.
# The list shows a part of the results.
# System: PfHDP1 homeodomain (GST-tagged)
# Test: gcPBM binding intensity (ln(normalized median fluorescence intensity)); higher = stronger DNA binding
# Method in brief: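 DNA-binding domains from P. falciparum, fused to GST and produced in E. coli, were put on an Agilent 4 × 180k double-stranded probe array for 1 h in 1× PBS holding 1% milk, 0.2 mg/ml BSA, 0.5% salmon testes DNA and 0.03% Triton X-100. Probes were primer-extended, 36 bp long and drawn from intergenic genomic regions, with negative controls included. After Alexa488 anti-GST antibody detection and a 488 nm scan, binding intensity was set as the highest Masliner-normalised natural-log median intensity across replicate spots of either probe orientation.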
row,Sequence,gcPBM binding intensity (ln)
1,TATATATTTTTTAATTGTACACTTCAAAAACAAAAA [XGTACX_site5595],6.54
2,TTCAAATTTCCACATACACACCTTGTAGATATATAT [CACACA_site7984],6.86
3,AGAATAAATAAATATTGTACATATAAAATATATATA [XGTACX_site896],6.27
4,ATTGAACACATCTATGCATGCACGGAAAAAAGTACA [TGCATGCA_site401],8.5
5,AAAAACTTAATATTGACACACATTTTTAAGAATAAT [CACACA_site4291],6.25
6,GTAGTTATATTAAGGGTGCTTAATTAGATTAAACAA,6.04
7,TATATAACTAAAATAACACACATATATAAAAATATA [CACACA_site7416],6.46
8,ATTATAACACTTATTTCATTTGTATGCCCTTTAAAA [CACACA_negctrl_site955],6.73
9,AGACCTATGATATATACACACATATATTTATTTATA [CACACA_site6630],6.62
10,TAATATTTCATTAGGTGTACACTACATAGTAGTAGA [XGTACX_site366],6.5
11,TATAAATATTTTATTGTACACACTTTTTATGAATGA [CACACA_site3136],6.98
12,GTTTGTTTGTTTGTTCGTACATATATAAAATAAAAA [XGTACX_site4731],6.73
13,TGTCACATAATTTATGCACACAATGATTATGCTTAA [CACACA_site2358],9.39
14,AAGTATAAATTAAAATGTACTTATAAAAAAAAAGAA [XGTACX_site7028],6.78
15,CCATATTTCATTAATGAACACACAAAGAGGTATATA [CACACA_site8431],6.94
16,ACATATATTGTACATACACACCTATATAAATATCCT [CACACA_site7503],6.86
17,TATGTATGTATGTATGCATGTGTAACACCTAAATAT [TGCATGCA_site361],7.03
18,TATATATATATACCAACACACATACATATATATATA [CACACA_site8530],8.96
19,TAAAAAATAAAAATTGCACACTAAAAAATTACGCAC [CACACA_site9129],8.98
20,AGGAAATTTGTTATTGCACACAAATTTTTCTTTTTT [CACACA_site8732],9.48
21,AATGTCAGTATGCGAGGTACACGTATAAAAATTACA [XGTACX_site4109],6.54
22,TATTATAATAAACCTATACACACATAAATAAATAAA [GTGCAC_negctrl_site627],7.05
23,TTTTACTAAATATATACACACATTATACAGATATAT [CACACA_site5765],6.67

row,Sequence,gcPBM binding intensity (ln)
1,TACATAAATTAAAACACACACACACTAGAAAAAAAA [CACACA_site5278],7.16
2,ACATATATATATATGTGTACATATTTATACAACAAT [XGTACX_site6660],7.03
3,TTTTAAATTGGAGTGGGCAGATTGATATTATTCTTC [GTGCAC_negctrl_site191],6.56
4,AAAAATAAAATATATACACACATATATATATATATA [CACACA_site2943],9.48
5,TTTTTAATTTTGTGGGTGCTTTCGTGTTATTATATA,7.23
6,TTTTTTTTTTCTCTCGCACACATTTTTTAAAATGAG [CACACA_site2607],7.06
7,AGTAGGCATATTGGTTGTACAAAAAAATTATGCACC [XGTACX_site8925],10.6
8,GACTCTTAAAAAATTTGTACCCACATAAATAATATA [XGTACX_site4313],6.29
9,ATATTTATATAGATGTGTACATAAATATAATAACAT [XGTACX_site1681],6.82
10,ATATATATATATGTTTATTTATTTGAACGATTGTGG [CACACA_negctrl_site828],9.04
11,TTTGGGTATACACATACATGCATGTCCTTATATATA [TGCATGCA_site84],7.46
12,ATATCATAAATTTATGCATGTTCTTTCTTCAACTCT [TGCATGCA_site992],6.9
13,GAATAAAAAATTGGCACACATAAATATATGGATATA [CACACA_site3047],6.28
14,TTCAACATATTAAAAAGTACAGAATATAACATTATA [XGTACX_site1361],6.36
15,TATACGTGAATGACAGTGCATTTCAAAAGTATAAAA [GTGCAC_site9887],7.92
16,AATAAATTTAGACACACACACACATATAAATAAATA [CACACA_site6531],6.96
17,ATAATATAATATATATGTACACATCCTTTTTGTGTA [XGTACX_site2879],6.7
18,TAAAAGTAAAAAGGTAGTACCTAAATAATATATATA [XGTACX_site8399],6.92
19,TGTGTAATATTCTGTTGTACATAACTCATAAATAAA [XGTACX_site5308],6.46
20,TATATATCCTCTGAATGTACTTGTTTAATAATGTAG [XGTACX_site4332],6.11
21,ATAAGATAGGCATATACACACATTTATTTACAGATA [CACACA_site5754],6.63
22,TATTTTACAAAATAAGGTACGTAAATATATGGTAGG [XGTACX_site2133],7.23
23,AAATATCTTTTATATTGTACATATTCCTTATGTGGA [XGTACX_site7638],6.23

row,Sequence,gcPBM binding intensity (ln)
1,AAAAACAAAAAAGAAGCACACATATATATATATATA [CACACA_site8779],9.36
2,AATATATAAATAAATACACACATAAAATAGAAATAT [CACACA_site1663],7.09
3,CCTTATTATTATTTTACACACGTCCTAATAAGAGGA [CACACA_site1319],6.95
4,TATTTAAAAATATATACACACATTTTATATTATTAT [CACACA_site781],6.32
5,AATATTATATATATGGGTACTAATTCCTTTAATTTC [XGTACX_site102],6.04
6,TTTATCTGATATATTACACACAAAAAAAAAAAAAAA [CACACA_site7637],6.2
7,TTATATATATATTATAGTACATATATAATATAGTAA [XGTACX_site6869],6.14
8,ATATATGAGCAAAAATATATAAGATAACACATAAAT [CACACA_negctrl_site167],7.25
9,TCTCTATAAATAAATACATGCATATAATAAAGAATT [TGCATGCA_site710],6.98
10,GAAATAGAAATAAAATAGGCATACAATAGAACTAAG [TGCATGCA_negctrl_site537],6.76
11,TTATATATATATAATACACACATAATAATATATTTA [CACACA_site3038],6.67
12,ATTTTTTTTATTTTTTCAATATATATATATATATAT [CACACA_negctrl_site1444],9.39
13,CGCACAAAAATATACACACACACATCTATATTTATT [CACACA_site7675],7.41
14,AAAACAAATGAGTACACACACATAAAAGTTGAAAAT [CACACA_site6238],6.97
15,TACCCATATTAATATGTGCGCATATAAAAGTCAAAC,8.1
16,ATAAGATATGTATATACACACATTTATTTACATATA [CACACA_site3263],6.56
17,GCATAAGAAATAAATAGTACACACATAGACACACAC [XGTACX_site3095],7.68
18,TATATATATATATACACACACATATATATATATATA [CACACA_site1346],9.3
19,ATATATATATCAACAACACACGATTAACTAAAAAAA [CACACA_site302],7.67
20,TTTTTTTAAACTGAAAGTACTTATTCCAAGAAAATA [XGTACX_site50],5.94
21,ATAATGACTAAATTTAAACACACAAGGGGAGTTTAC [CACACA_site8209],6.31
22,TATGAAAAAATATATACACACATAATAAAGGTATAT [CACACA_site3737],6.42
23,TTTGTTTTAAATATTATACACACGTAAAAGTATAAT [CACACA_site7954],6.57

row,Sequence,gcPBM binding intensity (ln)
1,TAATATTATATATAAACACACATACCCATGTAAATA [CACACA_site5170],6.8
2,AAAAAAAAAAATATATTATTTTACTTGTTTATTTTT [GTGCAC_negctrl_site435],6.14
3,AATAATCAAATATTAAAAATTGTGCAAAAAAAAAAA [XGTACX_negctrl_site399],9.8
4,TCGTACTTGTATTATGCACACATATAATTAAACATA [CACACA_site9089],10.5
5,TAAAAAAAATAAACGTGTACATAAAAATGAATATGT [XGTACX_site119],6.54
6,TTAATATATTAAATCTTACACACTAAAAAATATGTA [CACACA_site307],6.24
7,AGTATACATATATATACACACACACCGATATATATA [CACACA_site8357],6.85
8,TATGCGTCTTGCCTTGCACACTTTTATGAAAAAAAA [CACACA_site5174],8.05
9,GAAAATATTATAGCACCACACACTTATTTTATATAT [CACACA_site2265],6.71
10,AACGTTAAAAAAAAAATATATATAAGGAGAAAGCAC [XGTACX_negctrl_site338],6.8
11,TTCAATAGTAAGTATACACACATATATATATATAAA [CACACA_site2687],6.83
12,TAATTCGCAAAAGAAAGAAATTAAGAAAAAGAAAAA [XGTACX_negctrl_site614],5.89
13,TTTTTAAAAATATACACACACAGATATTATAGATAT [CACACA_site6511],6.89
14,TTTCTTTTTTTTTTTTCATTGATCCATTTATGATTA [TGCATGCA_negctrl_site225],6.39
15,TTATAGGTTCTATACATATATTTATATATGTACAGA [CACACA_negctrl_site60],6.02
16,CAAGCTATGTATTCTACACACACATACACCCATATA [CACACA_site9133],7.22
17,ATATATATAATATAATGTACGTATAATAATATGAGA [XGTACX_site2282],6.76
18,ATATGTAAATAAATATGTACTCATTTATTATTTTAT [XGTACX_site8748],6.36
19,CGTTATATATATAAAAGTACAAAAATTAAACATTCC [XGTACX_site4568],6.47
20,ATATGTATATTTTTTTGTACGTATTTATGTGTGTGT [XGTACX_site2093],6.72
